Reference: paper PMC4336329 (PLoS ONE, 2015)
The campaign covered roughly 310,000 compounds. About 2,200 (0.71%) showed an effect of 50% or more. The effect is printed as a negative number. This is one part of the list.

molecular target: human ether-à-go-go-related gene (hERG) potassium channel (human, UniProt Q12809); experiment: primary screen, population patch clamp on CHO cells stably expressing hERG
Sequence (Q12809 whole entry, looked up): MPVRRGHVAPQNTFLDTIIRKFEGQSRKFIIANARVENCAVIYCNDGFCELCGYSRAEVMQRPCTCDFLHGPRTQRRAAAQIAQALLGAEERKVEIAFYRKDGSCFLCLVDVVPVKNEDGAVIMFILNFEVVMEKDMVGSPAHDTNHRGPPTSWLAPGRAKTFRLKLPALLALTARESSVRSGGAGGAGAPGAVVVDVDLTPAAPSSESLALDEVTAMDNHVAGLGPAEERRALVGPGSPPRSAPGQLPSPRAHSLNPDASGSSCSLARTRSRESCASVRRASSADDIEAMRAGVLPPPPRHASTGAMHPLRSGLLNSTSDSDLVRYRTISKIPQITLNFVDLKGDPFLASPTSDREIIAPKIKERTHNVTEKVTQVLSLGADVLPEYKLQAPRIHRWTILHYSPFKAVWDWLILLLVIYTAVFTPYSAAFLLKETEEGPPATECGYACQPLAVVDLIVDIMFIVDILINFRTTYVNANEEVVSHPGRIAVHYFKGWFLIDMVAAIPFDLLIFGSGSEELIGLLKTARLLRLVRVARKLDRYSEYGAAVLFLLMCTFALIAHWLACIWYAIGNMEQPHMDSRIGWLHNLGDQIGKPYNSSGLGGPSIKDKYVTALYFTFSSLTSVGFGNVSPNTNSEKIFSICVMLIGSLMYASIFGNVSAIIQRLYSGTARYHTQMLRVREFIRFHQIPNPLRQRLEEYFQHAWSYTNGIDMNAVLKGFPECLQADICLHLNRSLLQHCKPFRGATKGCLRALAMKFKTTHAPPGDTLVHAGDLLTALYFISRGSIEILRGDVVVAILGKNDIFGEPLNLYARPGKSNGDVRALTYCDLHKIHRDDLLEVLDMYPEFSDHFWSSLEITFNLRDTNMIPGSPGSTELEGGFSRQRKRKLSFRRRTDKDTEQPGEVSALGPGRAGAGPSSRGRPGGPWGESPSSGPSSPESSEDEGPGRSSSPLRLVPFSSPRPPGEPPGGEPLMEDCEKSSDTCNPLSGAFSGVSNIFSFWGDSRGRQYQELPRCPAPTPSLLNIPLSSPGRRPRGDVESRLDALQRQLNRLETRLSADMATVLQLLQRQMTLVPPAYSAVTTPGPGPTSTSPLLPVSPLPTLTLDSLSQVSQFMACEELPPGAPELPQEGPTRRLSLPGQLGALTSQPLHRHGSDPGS

Row | Structure (SMILES) | hERG current change (%, negative = inhibition) at 1uM [%]
1 | CCN1C(=O)c2cccc3c(S(=O)(=O)NC(Cc4ccccc4)C(=O)O)ccc1c23 (stereo not drawn) | 13.7
2 | O=C(CSc1nnc(SCc2ccccc2)s1)NNC(=S)Nc1ccccc1 | 5.03
3 | CC1Cc2ccccc2N1C(=O)CSc1nc2ccccc2s1 (stereo not drawn) | 4.97
4 | Cc1occc1C(=O)N/N=C/c1cnn(C)c1C | -6.78
5 | O=C(CSc1ccc2ccccc2c1)Nc1ccc(S(=O)(=O)Nc2nccs2)cc1 | 10.8
6 | CCSc1nnc(N)s1 | 9.83
7 | COC(=O)CCC(=O)N(CCN(C(=O)CCC(=O)OC)c1ccccc1)c1ccccc1 | 12.8
8 | CC1(c2nnc(-c3ccncc3)o2)CC(c2ccc(Cl)cc2)=NO1 (stereo not drawn) | -8.04
9 | O=C1Cc2ccccc2C(c2ccc(Cl)cc2)N1 (stereo not drawn) | 4.56
10 | COc1cc(Cl)ccc1OCc1cc(C(=O)N2CCC(N(C)C)C2)no1 (stereo not drawn) | 4.46
11 | COc1cc(NC(=O)CN2CCN(c3ccccc3F)CC2)c(C)cc1[N+](=O)[O-] | 17.4
12 | COc1cccc(NC(=O)COC(=O)CCCC2=NS(=O)(=O)c3ccccc3N2)c1 | 10.8
13 | CN(C)CCCN(C(=O)c1ccc([N+](=O)[O-])o1)c1nc2cc3c(cc2s1)OCO3.Cl | -2.9
14 | O=C(Cc1ccc([N+](=O)[O-])cc1)N1N=C(C2CC2)CC1(O)C(F)(F)F (stereo not drawn) | -0.373
15 | O=C(O)CC1S/C(=N/N=C/c2ccc(-c3ccccc3[N+](=O)[O-])o2)NC1=O (stereo not drawn) | 4.31
16 | CCCc1cc(C(=O)OC)c(NC(=O)c2cc(C)on2)s1 | -2.95
17 | Cc1nc(NC(=O)C2CCCCC2)sc1C | -8.47
18 | CN(C)c1ccc(C2Nc3ccccc3C(=O)N2CCCN2CCOCC2)cc1 (stereo not drawn) | 7.31
19 | COc1ccc(S(=O)(=O)Cc2ccc(C(=O)NCc3ccccc3OC)o2)cc1 | -3.7
20 | COc1cccc(CNCc2ccccc2OC)c1.O=C(O)C(=O)O | 7.88
21 | O=C(NCc1ccccc1F)C1CCCN(C(=O)NC2CCCCC2)C1 (stereo not drawn) | 1.92
22 | Cn1c(SCC(=O)c2ccccc2)ncc(C(=O)Nc2ccccc2)c1=O | 9.47

Row | Structure (SMILES) | hERG current change (%, negative = inhibition) at 1uM [%]
23 | O=C(O)C(Cc1c[nH]c2ccccc12)NS(=O)(=O)c1ccc2ccccc2c1 (stereo not drawn) | 4.08
24 | CCn1c(Cc2ccccc2)nnc1SCC(=O)Nc1ccc(C)cc1 | 6.96
25 | CCCCOc1ccc(N=Nc2ccc(N)nc2N)cn1 | 7.91
26 | O=C(CCC(=O)N1CCN(C2CCCCC2)CC1)Nc1nnc(C(F)(F)F)s1 | 3.5
27 | O=C(O)CCSc1nnc(COc2cccc3cccnc23)n1-c1ccccc1 | 11.5
28 | CC(C)CCNC(=O)C1CCC(=O)N1C(C)C (stereo not drawn) | 13.4
29 | COCCCNC(=S)N1CCN(S(C)(=O)=O)CC1 | 16.9
30 | O=C(Nc1ccccc1)c1ccc2c(c1)OCO2 | 9.2
31 | Brc1cccc(C=Nc2cccc3ncccc23)c1 | 12.4
32 | CCOC(=O)/C(C(N)=NCc1ccco1)=C(/O)c1ccccc1 | 4.18
33 | CC(C)n1c(CN(C)c2ccccc2)nc2ccccc21.Cl | 13.4
34 | CCOc1ccccc1NC(=O)CCN1CCN(S(=O)(=O)c2ccc(Br)cc2)CC1 | 6.86
35 | CC(C)[C@H](NC(=O)[C@@H]1Cc2c([nH]c3ccccc23)C2c3ccccc3C(=O)N21)C(=O)NCC1CCCO1 (stereo partly drawn) | 9.87
36 | Cc1ccc2c(CC(=O)OCc3nc(N)nc(Nc4ccccc4C)n3)coc2c1 | 15.8
37 | CC(=O)N1CC(C)c2scc(C)[n+]2-c2ccccc21.[Cl-] (stereo not drawn) | 6.58
38 | CCCOC(=O)C1C2C=CC(C3CC23)C1C(=O)OCC(=O)c1ccccc1 (stereo not drawn) | 10.9
39 | Cc1[nH]n(-c2ccc([N+](=O)[O-])cc2)c(=O)c1/C=N/N1CCOCC1 | 0.312
40 | CCOC(=O)c1c[nH]c2c(C(=O)c3ccccc3)cc(Cl)cc2c1=O | 4.65
41 | CCc1ccc(-c2cc(C)no2)cc1S(=O)(=O)NCc1ccco1 | 7.6
42 | CC1(C)CC2CC(C)(CN2C(=O)C23CCC(C)(C(=O)O2)C3(C)C)C1 (stereo not drawn) | 4.92
43 | CCOc1ccccc1N1CCN(Cc2ccc(OC)c(OC)c2OC)CC1 | -14.3
44 | O=C(CNC(=O)c1ccc(Cl)cc1Cl)OCn1nnc2ccccc2c1=O | 16.5

Row | Structure (SMILES) | hERG current change (%, negative = inhibition) at 1uM [%]
45 | Cc1ccc2nc(SCC(=O)NC(=O)NCc3ccco3)[nH]c2c1 | -0.35
46 | CC1(C)CC(=O)C(C=NCCN2CCN(C(=O)C34CC5CC(CC(C5)C3)C4)CC2)=C(O)C1 | 13.5
47 | Cc1nc(CSc2nnc3scc(-c4ccccc4)n23)cs1 | 13.5
48 | Cc1nonc1C(=O)N1CCCC(N2CCN(c3ccc(F)cc3)CC2)C1 (stereo not drawn) | -17.7
49 | O=C(Nc1ccc([N+](=O)[O-])cc1)Nc1nc(-c2ccc(Cl)s2)cs1 | 9.34
50 | CCc1cc2c(=O)n(-c3ccccc3)cnc2s1 | 8.82
51 | O=C(NCC(c1ccco1)N1CCc2ccccc21)c1ccccc1Br (stereo not drawn) | 2.86
52 | COc1ccc(OC)c(NC(=O)NNC(=O)COc2ccc(-c3ccccc3)cc2)c1 | 2.35
53 | Cc1ccc(/C=[N+](/C)[O-])cc1 | 11.9
54 | O=c1ccn(Cc2ccccc2Cl)cc1 | 15.4
55 | CC(C)CNC(=O)C1CCN(CC2CCCCC2)CC1.O=C(O)C(=O)O | 16.6
56 | CCc1nc(N2CCN(CC(=O)NCC3CCCO3)CC2)c(C#N)c2c1COC(C)(C)C2 (stereo not drawn) | 2.32
57 | CC(C)(C)NC(=O)c1ccc2c(c1)N(CC(=O)N1CCN(c3ccccc3F)CC1)C(=O)C(C)(C)O2 | 2.25
58 | O=C(N=C1SC2CS(=O)(=O)CC2N1c1ccc(Cl)cc1)C1CCCO1 (stereo not drawn) | 13
59 | Cc1cc(C(C)(C)CC(C)(C)C)ccc1OCCOCC[N+](C)(C)Cc1ccccc1.[Cl-] | -62
60 | COc1cccc(C2C(C#N)=C(N)SC(c3ccccc3)C2[N+](=O)[O-])c1 (stereo not drawn) | 7.53
61 | O=C(NNc1nc2cc3c(cc2s1)OCO3)c1ccc(F)cc1 | -4.43
62 | S=c1[nH]nc(Cc2ccccc2)n1Cc1ccco1 | -3.36
63 | CCn1cc(C(=O)N(C)CC(OC)OC)c(=O)c2cc(S(=O)(=O)N3CCOCC3)ccc21 | 16.1
64 | c1ccc(-c2ccc(Oc3cc(N4CCOCC4)nc(-c4ccccc4)n3)cc2)cc1 | 12.3
65 | CCc1ccc(-n2cc(-c3ccc([N+](=O)[O-])cc3)[nH]c2=S)cc1 | 10.7
66 | CC(=O)Nc1cccc(C2=CC(c3ccco3)n3ncnc3N2)c1 (stereo not drawn) | 9.29

Row | Structure (SMILES) | hERG current change (%, negative = inhibition) at 1uM [%]
67 | O=C(CCc1ccccc1)N/N=C\C1CC=CCC1 (stereo not drawn) | 8.53
68 | O=C(CSc1nnc(-c2ccco2)o1)c1ccc[nH]1 | 12.4
69 | Cc1nn(-c2ccccc2)c(N2CCCC2)c1/C=C1\N=C(c2ccccc2)OC1=O | 10.1
70 | COc1ccccc1-n1c(SCC(=O)Nc2cc(C)on2)nc2c([nH]c3ccccc32)c1=O | 6.7
71 | O=c1c2ccccc2nc2n1C(CSc1ccccc1)CS2 (stereo not drawn) | 10.1
72 | CCc1ccccc1N(C(=O)c1ccco1)C(C(=O)NC1CCCC1)c1cccnc1 (stereo not drawn) | 3.5
73 | CCCCCC(=O)Nc1cccc(C2=NOC3(C2)C[C@@H](C(N)=O)N(C(=O)Cc2ccc([N+](=O)[O-])cc2)C3)c1 (stereo partly drawn) | -25
74 | CCc1ccc(NC(=O)CC2C(=O)NCCN2C(=O)c2ccccc2OC)cc1 (stereo not drawn) | 15.8
75 | O=C(CCN1C(=O)c2ccccc2C1=O)Nc1cccnc1 | -1.64
76 | Nc1c(C(=O)[O-])sc2nc(-c3ccccc3)cc(-c3ccc(Cl)cc3)c12 | 16.3
77 | C=Cc1ccc(CN2CCCN(Cc3ccc(Cl)cc3)S2(=O)=O)cc1 | 17.4
78 | COc1cccc(-n2c(CN3CCN(Cc4ccccc4)CC3)nc3ccc([N+](=O)[O-])cc3c2=O)c1 | 3.16
79 | O=C(CCS(=O)(=O)c1ccc(Br)cc1)N1CCC2(CC1)OCCO2 | 2.24
80 | COc1ccc(NC(=O)C2CC(=O)N(C(C)C)C2)cc1 (stereo not drawn) | 14.6
81 | O=C(CSc1nc2ccccc2c(=O)n1CC1CCCO1)NCc1ccc2c(c1)OCO2 (stereo not drawn) | 9.71
82 | Cc1ccc(-c2nc(C)sc2CC(=O)OCC(=O)Nc2cccc([N+](=O)[O-])c2)cc1 | 1.98
83 | COC(=O)c1ccccc1SCc1csc(C)n1 | 14.6
84 | CCCCOC(=O)CSC1=C(C#N)C(c2ccccc2OCC)C(C#N)C(=O)N1 (stereo not drawn) | 17.4
85 | C/C(=N\N=C(N)N)c1ccc(Cl)cc1 | -3.88
86 | COc1ccc(COC(=O)C2=C(C)NC(=O)NC2c2cc(OC)ccc2OC)cc1 (stereo not drawn) | 12.4
87 | CCOC(=O)c1c(=O)n(O)c2ccc(OC)cc2[n+]1[O-] | -2.03
